# According to patent US20090074666A1 (priority 2005, published 2009):
# Tested on: A/Hong Kong/8/68 H3N2
# Format: binding, human influenza virus A
# Design: key: “+” = binding; “−” = no binding; “(+)” = trace binding
substance,measurement,value
Globoside,Binding of influenza virus strain to glycolipids,−
